From PMC4336329 (PLoS ONE, 2015)
The whole screen tested about 310,000 compounds, of which about 14,000 (4.5%) showed an effect of 50% or more. The effect is printed as a negative number. This is one part of the list.

What follows are molecules tested against human ether-à-go-go-related gene (hERG) potassium channel (human, UniProt Q12809) (assay: primary screen, population patch clamp on CHO cells stably expressing hERG).
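Further: peak tail current of the secondary pulse compared with the same well before compound.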

human ether-à-go-go-related gene (hERG) potassium channel, sequence (Q12809 whole entry, looked up): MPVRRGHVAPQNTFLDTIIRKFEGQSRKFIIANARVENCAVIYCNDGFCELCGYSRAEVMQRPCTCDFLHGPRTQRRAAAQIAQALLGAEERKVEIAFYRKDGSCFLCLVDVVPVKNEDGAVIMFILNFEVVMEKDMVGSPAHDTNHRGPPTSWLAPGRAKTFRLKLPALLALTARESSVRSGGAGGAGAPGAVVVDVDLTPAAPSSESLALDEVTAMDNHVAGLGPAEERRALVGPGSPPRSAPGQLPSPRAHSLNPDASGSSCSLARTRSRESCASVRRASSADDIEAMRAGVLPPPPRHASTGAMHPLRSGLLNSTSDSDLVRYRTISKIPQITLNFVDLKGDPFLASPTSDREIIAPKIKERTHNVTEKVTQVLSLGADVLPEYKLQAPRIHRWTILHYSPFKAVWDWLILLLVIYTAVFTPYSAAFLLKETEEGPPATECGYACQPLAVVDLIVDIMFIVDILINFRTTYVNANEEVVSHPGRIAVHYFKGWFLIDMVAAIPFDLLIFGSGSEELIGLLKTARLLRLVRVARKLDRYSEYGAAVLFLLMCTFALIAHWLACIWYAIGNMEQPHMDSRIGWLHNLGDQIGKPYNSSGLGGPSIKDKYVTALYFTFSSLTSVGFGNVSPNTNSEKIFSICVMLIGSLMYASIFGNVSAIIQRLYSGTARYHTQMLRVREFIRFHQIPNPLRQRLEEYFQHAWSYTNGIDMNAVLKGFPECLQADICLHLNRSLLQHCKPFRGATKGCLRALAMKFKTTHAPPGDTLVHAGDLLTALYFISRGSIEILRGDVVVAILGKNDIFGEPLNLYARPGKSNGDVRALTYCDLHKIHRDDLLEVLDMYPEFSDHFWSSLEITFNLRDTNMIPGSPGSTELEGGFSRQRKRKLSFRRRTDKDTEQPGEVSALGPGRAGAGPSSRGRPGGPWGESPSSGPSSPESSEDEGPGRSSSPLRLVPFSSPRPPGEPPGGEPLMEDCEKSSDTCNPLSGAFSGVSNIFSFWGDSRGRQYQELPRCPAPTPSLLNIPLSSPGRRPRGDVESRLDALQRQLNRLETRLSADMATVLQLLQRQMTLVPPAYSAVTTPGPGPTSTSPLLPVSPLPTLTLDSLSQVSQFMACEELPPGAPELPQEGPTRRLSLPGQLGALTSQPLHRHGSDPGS

| SMILES | hERG current change (%, negative = inhibition) at 10uM |
| --- | --- |
| CC(=O)c1cccc(NC(=O)Cn2cnc(S(=O)(=O)N3CCOCC3)c2)c1 | 11.9% |
| CCNC(=O)/C(C#N)=C/c1c(N2CCN(C)CC2)nc2c(C)cccn2c1=O | 12.2% |
| CCn1c2ccccc2c2cc([N+](=O)[O-])ccc21 | 7.95% |
| CCn1cc(C(=O)NC2CCCCC2)c(=O)c2cc(S(=O)(=O)N(C)C)ccc21 | 2.38% |
| COc1cc(O)c(/C=N/NC(=O)c2ccncc2)c(OC)c1[N+](=O)[O-] | -5.01% |
| Cc1nc(N2CCC(C)CC2)c2oc3ccccc3c2n1 | 6.63% |
| COc1ccc(NC(=O)C/C(C)=N/NC(=O)c2cccs2)c([N+](=O)[O-])c1 | -54.4% |
| COc1ccc(C)cc1C(=O)CCC(=O)NCCc1ccc(S(N)(=O)=O)cc1 | 19.6% |
| COc1cccc(OCC(=O)N2CCCc3ccccc32)c1 | -0.515% |
| COc1ccc(Cl)cc1Nc1ncnc2sc(C)c(S(=O)(=O)N3CCC(C)CC3)c12 | 3.4% |
| Cc1ccc(N2CCN(C(=O)c3ccccc3NC(=O)C3CCCCC3C(=O)O)CC2)cc1 (centres unmarked) | 9.14% |
| CCOc1ccc2nc(N/C(N)=N/S(C)(=O)=O)nc(C)c2c1 | 2.24% |
| COc1ccc2oc(C(=O)OCC(=O)NC(=O)NC(C)C)c(C)c2c1 | 25.9% |
| CCC(=O)Oc1ccc(C(=O)Nc2cccc(NC(=O)c3ccco3)c2)cc1 | -1.82% |
| Cn1c(NC(=O)c2cc(-c3ccc4c(c3)OCO4)nc3ccccc23)cc(=O)n(C)c1=O | 8.89% |
| O=C(CN1CCC(NC(=O)C2CC2)CC1)Nc1ccccc1[N+](=O)[O-] | 22.1% |
| COc1ccc(C(CCN2CCCCC2)c2c(OC)cc(OC)c3c(-c4ccccc4)cc(=O)oc23)cc1 (centres unmarked) | -55.1% |
| CC(=O)COC(=O)c1cccc(N2C(=O)C3C4C=CC(C4)C3C2=O)c1 (centres unmarked) | 3.38% |
| CCOc1ccc(C2C(C#N)=C(N)Oc3cc(C)oc(=O)c32)cc1 (centres unmarked) | 9.66% |
| COc1ccc(Cl)cc1NC(=S)NCc1cccnc1 | -15.3% |
| O=C(NNC1=NCCC1)C1CC1 | 23.9% |
| COc1cc(-n2c(C)nc3cc(C(=O)NCC4CCCO4)ccc32)cc(OC)c1OC (centres unmarked) | 11.3% |

| SMILES | hERG current change (%, negative = inhibition) at 10uM |
| --- | --- |
| Cc1ccc(N2C(=O)CC(n3nc(C)cc3C)C2=O)cc1 (centres unmarked) | -19.8% |
| Cn1c(=O)n(C)c2cc(NC(=O)COc3ccc(Cl)cc3)ccc21 | -59.4% |
| Cc1nc(-c2ccccc2)nc2[nH]c(=O)n(-c3ccccc3)c(=O)c12 | 4.7% |
| O=C(Oc1ccc(-c2cn3c(n2)SCC3)cc1)c1ccccc1 | 2.58% |
| Cc1ccc2oc(=O)c(/C=C(\O)c3sc(C)nc3C)nc2c1 | -3.17% |
| O=C(CC(C(=O)N1CCc2ccccc21)n1ccnc1)NCc1cccnc1 (centres unmarked) | -6.03% |
| CCN(C(=O)CSc1nnc(-c2cccs2)n1CC)C1CCS(=O)(=O)C1 (centres unmarked) | 3.65% |
| CCC(=O)c1ccc(OCC(=O)NCCC2=CCCCC2)c(OC)c1 | -16.3% |
| CC12CCC(C(=O)O)(c3nc(C#N)c(C#N)nc31)C2(C)C (centres unmarked) | 14.2% |
| COc1ccc(-c2cn(Cc3ccc([N+](=O)[O-])cc3)nn2)cc1 | -9.43% |
| CCCCOc1ccc(OCCCC)c2c1NC1(N2)C(=O)N(C(C)=O)c2ccccc21 | 6.69% |
| CCCCNC(=O)CNC(=O)c1nn(-c2ccc(OC)cc2OC)c(=O)c2ccccc12 | 6.44% |
| COc1cc(NS(=O)(=O)c2cc(C(=O)N3CCN(C(C)=O)CC3)ccc2OC)cc(OC)c1 | 4.09% |
| Cc1nc2ccccc2nc1OCC(=O)Nc1cc(C(F)(F)F)ccc1N1CCOCC1 | 0.222% |
| COc1cc(C2/C(=C(\O)c3ccc4c(c3)CC(C)O4)C(=O)C(=O)N2Cc2ccco2)ccc1O (centres unmarked) | -3.61% |
| N#Cc1ccccc1 | 14.6% |
| c1ccc2c(c1)CC(CN1CCNCC1)O2 (centres unmarked) | -52.3% |
| COc1ccccc1-c1cc(C(F)(F)F)nc(S(=O)(=O)CCCC(=O)Nc2cc(C)on2)n1 | -7.67% |
| NC(=O)NC(CCC(=O)O)C(=O)O (centres unmarked) | -2.61% |
| COc1ccc(N(C)C(=S)Nc2ccc3nc(C)c(C)nc3c2)cc1 | -6.56% |
| COc1ccc(N(CC(=O)NCc2ccco2)S(C)(=O)=O)cc1Cl | -2.22% |
| COc1ccc(N2CCN(C(CNC(=O)c3ccc4c(c3)OCO4)c3cccnc3)CC2)cc1 (centres unmarked) | -16.2% |

| SMILES | hERG current change (%, negative = inhibition) at 10uM |
| --- | --- |
| CC(=O)OCCOc1nc(NC(C)C)nc(NC(C)C)n1 | -1.59% |
| CCc1nc2ccccc2c(C(=O)OC2CCOC2=O)c1C (centres unmarked) | 7.9% |
| COc1ccccc1N1CCN(C(=O)CN(CCc2ccccc2)S(C)(=O)=O)CC1 | -1.03% |
| O=C(CN1c2ccccc2Sc2ccccc21)N/N=C/c1ccc([N+](=O)[O-])cc1 | 10% |
| Cc1ccccc1NC(=S)N(CCCN1CCCCC1)Cc1ccco1 | -45.4% |
| CN1CCN(S(=O)(=O)c2ccc(NC(=O)Cc3ccc([N+](=O)[O-])cc3)cc2)CC1 | -4.49% |
| CC(c1ccco1)N(C(=O)c1cccc(S(=O)(=O)N(C)C)c1)c1ccccn1 (centres unmarked) | 16% |
| COc1ccc(NC(=O)CNC(=O)Cn2cnc3sc4c(c3c2=O)CCCC4)cc1OC | 25.3% |
| CCC(=O)Nc1sc2c(c1C(=O)OC)CCN(Cc1ccccc1)C2.Cl | -62.9% |
| Cc1ccc(NC(=S)Nc2cc(C(=O)O)ccc2N2CC3CC(C2)c2cccc(=O)n2C3)cc1C (centres unmarked) | 0.571% |
| CCCCCn1c(SCC(=O)CC(=O)OCC)nc2cc(C(=O)N3CCC(C(N)=O)CC3)ccc2c1=O | -17.7% |
| COc1ccc(CNS(=O)(=O)c2ccc3oc(C(=O)O)c(C)c3c2)cc1 | -2.57% |
| CCCc1c(O)nc(SCc2ccccc2)[nH]c1=O | 0.68% |
| CC[NH+](CC)CC.Nc1ncnc2c1ncn2C1OC(COP(=O)([O-])O)C(O)C1O (centres unmarked) | 19.1% |
| Cn1c(SCc2ccc(Cl)cc2)nc(C(F)(F)F)cc1=O | 36.8% |
| CN(C)C(=O)CSc1nnc([C@@H](N)Cc2ccccc2)o1.Cl | -2.63% |
| Cc1cccc(C(=O)NC(=S)Nc2cccc3nc(C)ccc23)c1 | 4.65% |
| O=C(CSc1nnc2ccccn12)NCCc1ccc(F)cc1 | 5.44% |
| Cc1ccc(C)c(OCc2nnc(NC(=O)c3ccco3)s2)c1 | -1.45% |
| Cc1ccccc1N=C1SCCN1C(=O)CN1C(=O)NC2(CCCC2)C1=O | -21.7% |
| Cc1ccc(CN2CCN(/N=C/c3cccn3C)CC2)c(C)c1 | -33.7% |
| CCn1c2ccc(F)cc2c2nnc(SCCN3CCOCC3)nc21 | -41.2% |

| SMILES | hERG current change (%, negative = inhibition) at 10uM |
| --- | --- |
| COc1cccc(CNCC(O)COc2ccc(C(=O)c3ccccc3)cc2)c1 (centres unmarked) | -34.7% |
| CCCCC(=O)NCCNc1nc2c(c(=O)n(C)c(=O)n2C)n1Cc1ccc(F)cc1 | 0.805% |
| OCCNc1nc(NCCC2=CCCCC2)nc(N2CCOCC2)n1 | -24.2% |
| CCN(CC)c1ccc(/C=N/NC(=O)CNC(=O)/C=C/c2ccco2)cc1 | -33.7% |
| C/C1=C\CCC2C(/C=C(\C)CC1)OC(=O)C2CN1CCCCC1 (centres unmarked) | 9.46% |
| COc1cc(CNc2ccc(O)cc2)cc(Br)c1OCc1ccccc1 | 28.6% |
| CC(=O)c1ccc(S(=O)(=O)Oc2ccc(-c3ccc(C(=O)O)cc3)cc2)cc1 | 13.4% |
| CCC(Oc1ccccc1)C(=O)OCC(=O)N(CC)c1c(N)n(Cc2ccccc2)c(=O)[nH]c1=O (centres unmarked) | 11.3% |
| CCC(=O)Nc1nn(C)c2nc3c(C)cccc3cc12 | 7.43% |
| NS(=O)(=O)c1ccc(CNC(=O)Cc2cccs2)cc1 | 24.8% |
| CCOc1ccccc1OCCCC(=O)Nc1cccc(-n2cnnn2)c1C | -9.18% |
| COc1ccc(N2CCN(CC(O)COc3ccc(C)cc3C)CC2)cc1.Cl (centres unmarked) | -67.8% |
| CC1(C)Cc2c(cnn2-c2ccc(F)cc2)C(NC(=O)C(C)(C)O)C1 (centres unmarked) | -0.859% |
| CC(=O)[C@@H]1[C@@H]2C(=O)N(c3ccc(F)c(Cl)c3)C(=O)[C@@H]2C2c3ccccc3C=CN21 (some centres unmarked) | 9.11% |
| OCCN1CN=C(Nc2nc3ccccc3o2)NC1 | 3.92% |
| CC(C)c1cc[n+](-c2nc([O-])sc2C=O)cc1 | -0.536% |
| CCCCN(CCCC)Cc1ccc(C(=O)NNC(=O)Nc2ccccc2)o1 | -10.6% |
| O=C(COC(=O)/C=C/c1ccccc1)NCc1ccccc1Cl | 17.8% |
| CCOC(=O)c1c(C)n(C)c2ccc(OCC(N)=O)cc12 | 7.9% |
| C=CCNc1nc(Nc2ccc(OC)cc2)nc(OCC)n1 | -3.74% |
